In publication PMC6919601, “Identification of Plasmodium dipeptidyl aminopeptidase allosteric inhibitors by high throughput screening” (PLoS ONE, 2019):
Values joined by “and” are separate entries in the source; they are usually repeats but may differ in a detail not shown here. Equal entries are not always repeated. The campaign covered roughly 110,000 compounds. About 230 (0.21%) showed an effect of 50% or more. This is one part of the list.

What follows are compounds tested against DPAP1 (Plasmodium falciparum, UniProt Q8IIJ9) (assay: primary screen, percent inhibition; read by cleavage of a fluorogenic dipeptide substrate; higher = more effect of the substance).
DPAP1, sequence (Q8IIJ9 whole entry, looked up): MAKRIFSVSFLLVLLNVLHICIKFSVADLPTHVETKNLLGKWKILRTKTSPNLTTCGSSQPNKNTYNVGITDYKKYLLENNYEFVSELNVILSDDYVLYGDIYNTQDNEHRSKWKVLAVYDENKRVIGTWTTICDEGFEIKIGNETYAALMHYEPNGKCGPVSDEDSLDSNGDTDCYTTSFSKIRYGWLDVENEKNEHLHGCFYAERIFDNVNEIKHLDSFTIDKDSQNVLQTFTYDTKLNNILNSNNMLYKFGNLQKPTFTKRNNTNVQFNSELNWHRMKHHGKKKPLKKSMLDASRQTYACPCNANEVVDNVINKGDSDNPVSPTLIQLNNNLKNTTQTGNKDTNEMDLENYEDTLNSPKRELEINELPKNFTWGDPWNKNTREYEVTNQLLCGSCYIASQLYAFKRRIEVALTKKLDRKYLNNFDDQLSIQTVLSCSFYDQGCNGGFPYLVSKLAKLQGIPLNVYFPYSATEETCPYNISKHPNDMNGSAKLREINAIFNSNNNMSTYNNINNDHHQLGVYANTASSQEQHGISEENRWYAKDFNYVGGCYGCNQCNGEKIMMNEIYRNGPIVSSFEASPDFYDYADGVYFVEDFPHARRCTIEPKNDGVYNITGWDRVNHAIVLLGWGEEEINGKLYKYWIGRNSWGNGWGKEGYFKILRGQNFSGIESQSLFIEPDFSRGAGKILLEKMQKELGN
Set-up: species or system P. falciparum D10 trophozoite lysates; single well
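Note: 30 min substrate incubation versus DMSO and 10 µM JCP410 controls.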

SMILES | % Inhibition @ 10 uM
COC(=O)c1c(C)sc2c1OC(N)=C(C#N)C2c1cccc(OC)c1OC (stereo not shown) | 2.99%
O=C(C1CCCN(S(=O)(=O)c2ccc(Br)s2)C1)N1CCCCCC1 (stereo not shown) | 5.19%
CN(C)c1ccc(/C=C(\C#N)c2nc(-c3cc4ccccc4oc3=O)cs2)cc1 | 2.54%
O=C(Nc1ccccc1C(=O)O)c1cccc(C(=O)Nc2ccccc2C(=O)O)c1 | 21.7%
CCOc1ccc(-c2nnc3ccc(SCC(=O)Nc4nnc(C)s4)nn23)cc1 | 3.54%
Cc1[nH]nc(N)c1-c1ccc(Cl)cc1 | -3.35%
O=[N+]([O-])c1ccc(CNc2ccc(Cl)cc2)s1 | -3.35%
COc1ccc2cc3cc(C(=O)O)sc3nc2c1 | 5.12%
COc1ccc(Cn2c(CCC(=O)N3CCOCC3)nc3cccnc32)cc1 | 0.66%
CCCSc1nnc2n(CCC)c3c(c(=O)n12)C(C)(C)Cc1ccccc1-3 | -1.18%
COc1ccc2c(CNCc3ccc(C)o3)c(C(=O)O)n(Cc3ccc(C)cc3)c2c1 | -0.712%
O=C(Nc1cccc(O)c1)c1ccc2c(c1)C(=O)N(c1ccccn1)C2=O | -2.63%
CCc1c(C)sc(NC(=O)CCCOc2ccc(Cl)cc2Cl)c1C(N)=O | -9.33%
O=C1NC(=O)C2C1Sc1nc(O)sc1C2c1ccco1 (stereo not shown) | 3.73%
CC(C)CCNC(=O)c1cn(C2CCCC2)c(=O)c2c1c1ccccc1n2C | 1.85%
COc1ccc(C2c3c(oc4cc(C)c(C)cc4c3=O)C(=O)N2c2ccc(C)cn2)cc1OC (stereo not shown) | -6.94%
COC(=O)C1=C(C)N=c2s/c(=C/c3ccc4c(c3)OCO4)c(=O)n2C1/C=C/c1ccccc1 (stereo not shown) | 0.279%
CCOC(=O)c1oc2c(CN3CCN(C)CC3)c(O)ccc2c(=O)c1-c1ccccc1OC | -1.11%
O=C(NCCN1CCOCC1)c1nn2c(C(F)(F)F)cc(-c3ccccc3)nc2c1Cl | 8.74%
CCSc1ncnc2sc3c(c12)CCC(C)C3 (stereo not shown) | -6.44%
Cc1cc(C)n(-c2nc3ccccc3nc2N2CCN(C(=O)c3ccc(Cl)cc3)CC2)n1 | 0.032%
COCCN1C(=O)c2[nH]nc(-c3c(C)cc(C)cc3O)c2C1c1cccc(OC)c1 (stereo not shown) | 9.21%
Cc1ccc(Cn2nnc3c(O)nc(C4CCN(C(=O)OC(C)(C)C)CC4)nc32)cc1 | 2.21%
COC(=O)Nc1c(C)nc2n(C)c3ccccc3n12 | 3.27%
Cc1occc1C(=O)O/N=C(\N)c1ccccn1 | 0.884%

SMILES | % Inhibition @ 10 uM
CCCn1nc(NC(=O)c2cccc(Cl)c2)c2cc3ccccc3nc21 | -0.671%
Cc1nc2nc(C)c(CCC(=O)N3CCCC3)c(C)n2n1 | 4.54%
CC1CCC(N2CCCC2CO)CC1 (stereo not shown) | 2.99%
CCOC(=O)c1[nH]c(C(=O)O)c(CCN(CC)CC)c1C | 6.12%
Cc1cccc(NC(=O)C2C(=O)N(C)C3(C)CC2c2ccccc2O3)c1 (stereo not shown) | 5.07%
CCOP(=S)(OCC)C(Nc1ccccc1)c1ccccc1 (stereo not shown) | -2.12%
CCOCCCNC(=O)CCc1nnc2n(Cc3ccccc3)c(=O)c3ccccc3n12 | 0.981%
COc1ccc(NC(=O)c2sc3nc4c(cc3c2N)CC(C)CC4)cc1 (stereo not shown) | 2.82%
O=C(CCC(=O)N1CCSc2ncccc21)NCc1cccc(Cl)c1 | -1.6%
CCOC(=O)N1CCC(Nc2nc3ccccc3n3cnnc23)CC1 | -4.21%
CCOc1ccc(N2CC(C(=O)Nc3ccccn3)CC2=O)cc1 (stereo not shown) | 2.95%
CCOC(=O)c1sc(N2N=C(C)/C(=C\c3cc4c(cc3Br)OCO4)C2=O)nc1C | 0.884%
Cc1nc2c(C(=O)NC3CCCCC3)cnn2c(C)c1Cc1ccccc1 | -2.14%
COC(=O)c1ccc2[nH]c(SCc3cccc(C)c3)nc2c1 | 3.3%
COc1ccccc1/C=C/c1nn2c(C)nnc2s1 | 2.29%
Cc1sc2c(c1C)c(=O)n(CCc1ccccc1)c(=O)n2CC(=O)NCCC1=CCCCC1 | -5.88%
Cc1ccc(-n2nc(C)c3c(C(=O)Nc4nc(C)cs4)cc(C)nc32)cc1 | -3.13%
CCN1CCC(C#N)(NC(=O)[C@H](Cc2c(F)cccc2F)NC(=O)c2ccc(-c3ccccc3Cl)nc2)CC1 | 4.33%
CC(=O)Nc1cc2nn(-c3ccccc3)nc2cc1Cl | 2.44%
CC1(C)CC2CC(C)(CN2C(=O)c2cnn3c2NC(c2cccs2)CC3C(F)(F)F)C1 (stereo not shown) | -7.02%
NS(=O)(=O)c1ccc(CCNC(=O)CCC(=O)N2Cc3ccccc3Oc3ncccc32)cc1 | -2.62%
CCOC(=O)N1CCC(NC(=O)Cn2cc3c(n2)CCC(C)C3)CC1 (stereo not shown) | -3.35%
CC1=C(C(=O)Nc2ccccc2)C(c2ccccc2Cl)n2ncnc2N1 (stereo not shown) | -16.5%
Cc1nn(CC(=O)NCCc2ccc(Cl)cc2)c(=O)c2nn(-c3ccccc3)c(C)c12 | 8.44%
CCCN1C(=O)c2[nH]nc(-c3ccccc3O)c2C1c1ccc(OC)c(OC)c1 (stereo not shown) | -1.35%

SMILES | % Inhibition @ 10 uM
CCCCCc1ccc(-c2ccc(-c3ncc(N)cn3)cc2)cc1 | -5.62%
COc1ccc2nc(NC(=O)Cn3cnc4onc(-c5ccc(Cl)cc5)c4c3=O)sc2c1 | 7.39%
COc1cc(OC)cc(C(=O)Nc2nc(-c3nnn(-c4cc(C)ccc4C)c3C)ns2)c1 | -5.47%
c1cc2c(cc1-c1nnc(CN3CCN(C4CCCCC4)CC3)o1)OCO2 | 9.51%
CCOC(=O)C1=C(CC)OC(N)=C(C#N)C1c1cccs1 (stereo not shown) | -3.72%
COc1cccc(C2c3c(-c4c(C)cc(C)cc4O)n[nH]c3C(=O)N2CCCO)c1 (stereo not shown) | 0.00706%
N#CCNC(=O)[C@@H](NC(=O)OCc1ccccc1)C1CCCC1 | -4.72%
Cc1ccc2c(=O)c(C(=O)c3ccc(Cl)cc3)cn(CC(N)=O)c2n1 | -1.52%
O=S1(=O)CCC(N2CCOCC2)C1 (stereo not shown) | -0.152%
CC(C)NC(=O)CN(Cc1ccccc1Cl)S(=O)(=O)c1ccc(Br)cc1 | 3.21%
Cc1ccc2c(Sc3ccc(Cl)cc3)c(C(=O)NCCN3CCN(C)CC3)[nH]c2c1 | -4.45%
O=C(Cn1ncc2c1-c1ccccc1OC2)NCC1(c2ccccc2)CCCC1 | 2.6%
CCN1CCN(C(=O)C2CCN(c3ncnc4c3sc3cccc(F)c34)CC2)CC1 | 2.65%
CCOc1cccc(C(=O)Nc2ccc(NC(=O)c3cccs3)cc2)c1 | -11%
CC(C)Nc1nc(Oc2ccccc2)nc(Oc2ccccc2)n1 | 2.7%
O=[N+]([O-])c1ccc(SCCc2ccncc2)cc1 | 0.757% and 9.38%
CC1CCC(NS(=O)(=O)c2ccc(-n3cccn3)cc2)CC1 (stereo not shown) | 0.0855%
CC1C/C(=C\C=C\N(C)C)C(=O)/C(=C/C=C/N(C)C)C1 (stereo not shown) | 4.84%
Cc1ccc(CSc2nc3ncccc3c(=O)n2CC2CCCO2)cc1 (stereo not shown) | -1.66%
CC1CN(C2=NC(=O)/C(=C\c3ccc(N(C)C)cc3)S2)CC(C)O1 (stereo not shown) | 8.05%
CC(C)C[C@H](NC(=O)c1ccc(-c2ccccc2)cc1Cl)C(=O)NCC#N | -5.2%
CCOc1ccc(C2C3=C(O)CCCC3=NC(C)=C2C(=O)N2CCCCC2)cc1OC (stereo not shown) | -3.23%
Cc1cc(C(=O)NCCc2ccccc2)no1 | 2.98%
Cc1ccc(N2/C(=N/C(=O)c3ccccc3)SC3CS(=O)(=O)CC32)cc1 (stereo not shown) | 0.709%
O=C1NCCCC[C@@H]1Nc1ccccn1 | -3.09%

SMILES | % Inhibition @ 10 uM
O=C(O)C1CC(c2ccc(Br)cc2)=Nc2ccccc2S1 (stereo not shown) | -13.3%
CCc1ccc(C2=CC(c3ccc(OC)c(OC)c3OC)n3ncnc3N2)cc1 (stereo not shown) | -1.62%
CCOc1cc(/C=C2/SC(=O)N(CC(=O)Nc3ccccc3C)C2=O)ccc1O | -0.865%
CN(C)CCCN1C(=O)CSC1c1ccc(Br)cc1 (stereo not shown) | 6.18%
CCOc1ccc(CCNC(=O)CCc2c(C)nc3c4cccnc4nn3c2C)cc1 | -3.45%
COc1ccc2c(Cl)c(C(=O)Nc3ccc(NC(C)=O)cc3)sc2c1 | -2.83%
CC(C)(C)c1ccccc1OCCCCCN1CCOCC1 | -2.54%
COc1c(O)cnn(C(C)(C)C)c1=O | -3.67%
Cc1cc(-c2noc(/C=C/c3ccc(F)cc3)n2)c2ccccc2n1 | 1.32%
Cc1c(C(=O)NCc2ccc3c(c2)OCO3)oc2ccc3c(c12)C(=O)CC1(CCCCC1)O3 | -4.68%
Cc1cc(=O)n2nc(N3CCCC(C(=O)NC4CCCc5ccccc54)C3)sc2n1 (stereo not shown) | 1.38%
CC(C)CSCCc1ccncc1 | 3.34%
CCCN(CCC)S(=O)(=O)c1ccc(NC(=O)c2ccc(Br)cc2)cc1 | 2.13%
CCOC(=O)c1ccc(N2C(=O)C3C(c4ccc(C)cc4)OC4(C(=O)c5ccccc5C4=O)C3C2=O)cc1 (stereo not shown) | 38%
COc1ccc(CCC(=O)Nc2cccc3ccc(C)nc23)cc1 | -3.71%
Cc1ccc(CNC(=O)CN(c2ccc(F)cc2)S(=O)(=O)c2ccc3c(c2)OCCO3)cc1 | -1.61%
COc1ccc(/C=C(/NC(=O)c2ccc(C)cc2)C(=O)N2CCOCC2)cc1OC | 2.45%
CCCCc1[nH]nc2c1C1(CCN(C(=O)c3ccccc3)CC1)C(C#N)=C(N)O2 | 0.722%
Cc1cc(C)c(C2=CC(C(F)F)=NCCN2)c(O)n1 | 3.38%
O=C1NC(=S)N/C1=C\c1cccnc1 | -5.61%
CC1(C)CC(=O)C2=C(C1)OC(N)=C(C#N)C2c1cccc(OCc2ccccc2)c1 (stereo not shown) | 1.4%
N#Cc1ccc(CSc2nc(O)cc(-c3ccccc3)n2)cc1 | 3.79%
